Measurements as given in PubChem BioAssay AID686971 (National Center for Advancing Translational Sciences (NCATS), 2013).
The campaign covered roughly 360,000 compounds. About 7,500 (2.1%) were called active. The shares of active, inactive and inconclusive entries below differ from those in the screen. The call rests on the fitted dose curve; in most records, active means well fitted cell-killing curve with a large enough effect; inconclusive means small, poorly fitted or top-dose-only effect, or effect the other way, or another doubt; inactive means no such curve, though single readings can be large or run the other way. No potency is given beside an inconclusive call; the fits are too rough.

Experiment: qHTS for induction of synthetic lethality in tumor cells producing 2HG: qHTS for the HT-1080-IDH1KD cell line;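 on activity, negative = toxicity: 0% = DMSO wells and -100% = cell-free medium wells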
Details: HT-1080 IDH1 knockdown viability, ATP luminescence, 48 h; activity, negative = toxicity: at 46.1 µM (top of the series) unless noted
How it was run: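 Cytotoxicity counter-line: IDH1KD HT-1080, 48 h, CellTiter-Glo. Curves classed by r2, magnitude and activity.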
Potency means the concentration at half of the fitted maximal effect; tags describe the fitted curve by direction and shape.

Structure (SMILES)	Potency	activity, negative = toxicity
Cc1ccc(S(=O)(=O)N2[C@@H](c3ccc(C(C)(C)C)cc3)C(C(=O)O)=CC[C@H]2c2cccc(Cl)c2)cc1	inconclusive [cytotoxic, partial curve]	
Cc1ccc(Nc2cc(C)nc3ccc(C)cc23)cc1	inconclusive [cytotoxic, single point]	
Cn1c(=O)c2c(SCC(=O)N3CCCc4ccccc43)nc(CC(C)(C)C)nc2n(C)c1=O	inactive	
COc1ccc(/C=N/NC(=O)c2ccccc2OCc2ccccc2)c(OC)c1	inactive	
COc1ccc(CC(=O)O/N=C(\N)c2ccc(Br)cc2)cc1OC	inconclusive [cytotoxic, single point]	
CCCCN1C(=O)/C(=C/C=C2/CC(C)(C)CN2C)SC1=S	inactive	
COCCNC(=O)Cc1c(C)c2c(cc(C)c3c(C(C)(C)C)coc32)oc1=O	active: 8.2 µM	
O=C(Nc1ccc(OC(F)F)c(Cl)c1)Nc1ccc2c(c1)OCO2	inconclusive [cytotoxic, single point]	
Cc1sc(NC(=O)c2ccccc2)c(C(c2ccccn2)N2CCN(CCO)CC2)c1C (stereo not given)	inactive	
COc1cccc(CN(C)C[C@@H]2OCc3ccccc3-c3c(n(C)c4ccccc34)C(=O)N([C@@H](C)CO)C[C@H]2C)c1	inconclusive [cytotoxic, single point]	
O=C(c1ccncc1)N(c1ccc2oc3c(c2c1)CCCC3)S(=O)(=O)c1cccc([N+](=O)[O-])c1	inconclusive [cytotoxic, single point]	
CCc1nc2c(OCC(=O)c3ccc(Cl)cc3Cl)cccn2c1N(C)C(=O)c1cccs1	inconclusive [cytotoxic, single point]	
Cc1ccc(C(=O)N2CCCC(C(=O)c3ccc(Oc4ccccc4)cc3)C2)cn1 (stereo not given)	inconclusive [cytotoxic, partial curve]	
NC(c1csc(NC(=O)Nc2ccc(OC(F)(F)F)cc2)n1)C1CCCCC1 (stereo not given)	inconclusive [cytotoxic, partial curve]	
CCc1cc2cc(C)ccc2nc1SCC(=O)N1CC(=O)Nc2ccccc21	inconclusive [cytotoxic, single point]	
COc1ccc2[nH]cc(C(=O)CCl)c2c1	active: 7.31 µM	
CC(=O)N1CCCN(Cc2cn(-c3cccc(C)c3)nc2-c2cccc(F)c2)CC1	inactive	
COc1ccc(/C=N/NC(=O)c2[nH]c3ccc(C)cc3c2-c2ccccc2)c(C(=O)O)c1OC	inconclusive [cytotoxic, single point]	
Cc1sc(NC(=O)c2ccco2)c(C(c2cccnc2)N2CCCC2)c1C (stereo not given)	inconclusive [cytotoxic, partial curve]	
O=C(NC(C(=O)N/N=C/c1cccc2ccccc12)c1n[nH]c(=O)c2ccccc12)c1ccccc1 (stereo not given)	inconclusive [cytotoxic, partial curve]	
Cn1c(=O)c2c(nc(NCc3ccc4c(c3)OCO4)n2Cc2ccccc2)n(C)c1=O	inconclusive [cytotoxic, single point]	
C=CCOc1ccc(C(=O)Nc2ccccc2C(=O)NCc2cccnc2)cc1	active: 23.1 µM	
CC(C)(C)Cc1c(-c2ccc(C#N)cc2)nc2c(Cl)cc(C(F)(F)F)cn12	inconclusive [cytotoxic, single point]	
Cn1c(NCc2ccc(Cl)cc2)nc2ccccc21	inconclusive [cytotoxic, single point]	

Structure (SMILES)	Potency	activity, negative = toxicity
CCOc1ccccc1NS(=O)(=O)c1ccc(-c2cnc(C3CC3)o2)cc1	active: 0.206 µM	
Cc1c(OCc2ccccc2)c(=O)ccn1Cc1ccc(Cl)cc1	inconclusive [cytotoxic, single point]	
CCCn1c(=N)n(CC(=O)c2ccc(Cl)cc2)c2ccccc21	inconclusive [cytotoxic, single point]	
COC(=O)c1c(C)oc2ccc(N(C(=O)c3ccncc3)S(=O)(=O)c3ccc(C)cc3)cc12	active: 2.59 µM	
CC(=O)Nc1ccc(/C=N/NC(=O)c2cccc(S(=O)(=O)N3CCOCC3)c2)cc1		inconclusive: -31.3% [cytotoxic]
COc1ccc(/C=C2/C(=O)OCc3cc(OC)c(OC)cc32)c(OC)c1	inconclusive [cytotoxic, partial curve]	
COc1ccc(C(C)(O)c2nc(-c3csc4ccccc34)cs2)cc1 (stereo not given)	active: 16.4 µM	
O=C(CSCC(=O)NN=Cc1ccccc1)NN=Cc1ccccc1	inactive	
Fc1cccc(-n2cc(-c3ccccc3)c3c(=S)nc[nH]c32)c1	inconclusive [cytotoxic, partial curve]	
COC(=O)CSc1nsc(SCC(=O)OC)c1C#N		inconclusive: -31.7% [cytotoxic]
Cc1cc(NC(=O)COc2ccccc2C)ccc1NC(=O)c1cccs1	inactive	
CCOC(=O)Cc1csc(NC(=O)c2ccc(C)cc2)n1	inactive	
CCCCOC(=O)C1=C(C)Nc2nnnn2C1c1ccccc1Cl (stereo not given)	inconclusive [cytotoxic, partial curve]	
COc1ccc(CN2C3CCCC2CC(NC(=O)Nc2cccc(C)c2)C3)cc1 (stereo not given)	inconclusive [cytotoxic, partial curve]	
COc1ccc(S(=O)(=O)Nc2cccc3c2O[C@H](CN(C)S(=O)(=O)c2ccc(Cl)cc2)[C@H](C)CN([C@H](C)CO)C3=O)cc1	inactive	
COc1ccc(-c2n[nH]c(C)c2-c2ccc(OC)c(OC)c2)c(O)c1	active: 18.4 µM	
COc1ccccc1-c1cnc(C(O)c2ccccc2)[nH]1 (stereo not given)	inconclusive [cytotoxic, single point]	
Cc1ccc(C)n1-n1cnc2sc3c(c2c1=O)CCC3	inactive	
CC(=O)N1CCN(S(=O)(=O)c2cccc(C(=O)NCCC3=CCCCC3)c2)CC1	inactive	
O=C(C1CCCN(S(=O)(=O)c2ccc(Br)s2)C1)N1CCN(c2ccccc2)CC1 (stereo not given)	inactive	
Cc1c(C)n(C)c2ccc(C(=O)NCCCN3CCN(c4ccc(F)cc4)CC3)cc12	inconclusive [cytotoxic, single point]	
CC(=O)C1=NN(c2ccccc2)C(c2cccs2)N1c1ccc(N(C)C)cc1 (stereo not given)	active: 2.51 µM	
Cn1nc(C(=O)OCC(=O)Nc2sccc2C(N)=O)c2ccccc2c1=O	inactive	
COc1cccc(NC(=O)C2(C)CCN2C(=O)Cc2ccc(-c3ccccc3)cc2)c1 (stereo not given)	inconclusive [cytotoxic, single point]	

Structure (SMILES)	Potency	activity, negative = toxicity
Cc1onc(-c2ccccc2Cl)c1C(=O)N1CCc2ccccc2C1	inconclusive [cytotoxic, single point]	
COc1ccc(N(CC(=O)Nc2ccc3c(c2)OCO3)S(=O)(=O)c2ccccc2)c(OC)c1	inactive	
CC(C)(C)C(=O)Cn1c(=N)n(Cc2ccccc2)c2ccccc21	inconclusive [cytotoxic, single point]	
CCOC(=O)c1c(Cc2ccc(Cl)cc2)c[nH]c1C	inconclusive [cytotoxic, partial curve]	
COC(Cc1n[nH]c(=S)n1-c1ccc(Cl)cc1)OC	inconclusive [rising, single point]	
O=C(/C=C/c1ccccc1)CC(O)(c1ccccc1)C(F)(F)F (stereo not given)	active: 10 µM	
CN1CCN(C(c2ccccn2)c2cc(Cl)c3cccnc3c2O)CC1 (stereo not given)	inconclusive [cytotoxic, partial curve]	
CCOc1cc(CNc2ccc3c(c2)OCCO3)cc(Br)c1OCC	active: 2.31 µM	
CCN(CC)c1ccc(/C=C2\C(=O)N(c3nnc(C)c(=O)[nH]3)N=C2C)cc1	inconclusive [cytotoxic, single point]	
C1CCCCCC(NCCN2CCNCC2)CCCCC1	active: 18.4 µM	
O=C(N/N=C/c1ccccn1)c1sc2ccccc2c1Cl	inconclusive [cytotoxic, single point]	
O=C1c2ccccc2C(=O)N1CCCCN(C(=O)c1ccc(Cl)s1)c1ccc(Cl)cc1	inactive	
CCC(C)[C@H](NC(=O)c1cc2cc(Cl)ccc2n1C)C(=O)N1CCC(C(=O)O)CC1 (stereo not given in full)	inactive	
O=C(c1ccco1)N1CCN(C(=O)c2[nH]c(C(F)(F)F)nc2-c2ccccc2)CC1	inconclusive [cytotoxic, single point]	
Cc1ccc(S(=O)(=O)NC(=O)COc2cc(C)ccc2C(C)C)cc1	inactive	
O=C(Cn1nc(C(F)F)cc1C(F)F)NNC(=S)Nc1ccc([N+](=O)[O-])cc1	inactive	
Cc1[nH]c(=O)[nH]c(=O)c1S(=O)(=O)N1CCCC1	inactive	
CCCCN(C(=O)CSc1nnc(Nc2ccc(C)c(C)c2)s1)c1c(N)n(Cc2ccccc2)c(=O)[nH]c1=O	inconclusive [cytotoxic, partial curve]	
O=C(NCCCN1CCN(c2ccccc2F)CC1)C1CCN(S(=O)(=O)N2CCOCC2)CC1	inactive	
O=C(Cn1nc(CNc2ccc(Cl)cc2)[n+]2c1CCCCC2)c1ccc(Cl)cc1	inconclusive [cytotoxic, single point]	
CCOC(=O)c1csc(NC(=O)c2ccc(S(=O)(=O)N3CCCC3)cc2)n1	inconclusive [cytotoxic, partial curve]	
O=C1[C@H](Cc2ccccc2)NCC=CC[C@@H](c2ccc(Cl)cc2)N1Cc1ccc(Cl)cc1	inconclusive [cytotoxic, single point]	
